The subject of the data set is COc1cc2c(C(=O)O)c(C)oc2cc1OS(=O)(=O)O. Kind of data set: Inhibition of human factor 10a assessed as initial rate of S-2772 hydrolysis at 2.6 mM by Michaelis-Menten analysis.

Broadly, the Km is the substrate concentration at which the rate is half of its maximum.

With “Coagulation factor X (Homo sapiens) (letters omitted)”, the Michaelis-Menten constant (Km) was 61 µM and the Vmax turned out to be 54 mAU/min.

Values taken from ChEMBL document CHEMBL1152384, “First steps in the direction of synthetic, allosteric, direct inhibitors of thrombin and factor Xa” (Bioorg Med Chem Lett, 2009).
